This note sets out measurements from the supplement of paper PMC11417369.

± gives the standard deviation of the averaged measurements. This is one part of the list.

The assay deals with PfAP2-LT AP2 domain (GST-tagged). Nature of the assay: gcPBM binding intensity (ln(normalized median fluorescence intensity)); higher = stronger DNA binding. In short, it runs like this: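 GST-fused DNA-binding domains of P. falciparum, expressed in E. coli, were applied at about 25 μg on average for 1 h to an Agilent 4 × 180k array of primer-extended double-stranded 36-bp intergenic genomic probes and negative controls. Binding intensity is the highest Masliner-normalised natural-log median intensity across replicate spots of either probe orientation, measured with Alexa488 anti-GST antibody and a 488 nm scan.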
For “TATTTATTTATTTATTGTACATAAGTATATATTATA [XGTACX_site6566]”, the “gcPBM binding intensity (ln)” value is 8.63 ± 0.44.

Turning to “AAAAAGTAGTAAAACAGTACAGTATTTATGCCTATT [XGTACX_site6434]”, the “gcPBM binding intensity (ln)” value amounted to 9 ± 0.45.

Turning to “AAAAAAAAAAAAAGTACACACTTTTGCGTACATGTA [CACACA_site7449]”, the “gcPBM binding intensity (ln)” value stood at 8.89 ± 0.43.

With “TAAAAAAAATAGTCAAGTACATAAGAAGGGAAGAAA [XGTACX_site8733]”, the “gcPBM binding intensity (ln)” value came to 8.84 ± 0.49.

As for “TTATTCATATTATCATGTACTTATATATATTGTCAT [XGTACX_site2231]”, the “gcPBM binding intensity (ln)” value was 8.94 ± 0.46.

For “ACTAAAAGATATATAATTTCTTTCTTATTTATTTTT [CACACA_negctrl_site842]”, the “gcPBM binding intensity (ln)” value is 8.32 ± 0.59.

In the case of “TTTAATTTTTTTAATTCACACATTATTCCATCCTTT [CACACA_site5480]”, the “gcPBM binding intensity (ln)” value is 8.78 ± 0.54.

In the case of “AATAAATAAGCAACATGTACATACAAATATATACAT [XGTACX_site8529]”, the “gcPBM binding intensity (ln)” value came to 9.12 ± 0.38.

Regarding “ATTTTCCATTGTGCTACACACAACGGTTCGCAATAA [CACACA_site2974]”, the “gcPBM binding intensity (ln)” value was found to be 9.07 ± 0.4.

Turning to “ATCTAATAAAAATACACACACATATGATTTGTGAAT [CACACA_site1867]”, the “gcPBM binding intensity (ln)” value came out at 9.22 ± 0.3.

For the sequence “TTTTGTTTATTATGATTCAAAATGATTTTATCTTTG [TGCATGCA_negctrl_site425]”, the “gcPBM binding intensity (ln)” value amounted to 8.49 ± 0.48.

Take “TATTATATATATAAATGTACTTATTTTAATTCCCCT [XGTACX_site8638]”: the “gcPBM binding intensity (ln)” value is 8.54 ± 0.47.

In the case of “AAAAAAACATGAAACACACACAAATATTTATTTATA [CACACA_site6967]”, the “gcPBM binding intensity (ln)” value worked out at 9.18 ± 0.37.

With “TCTTTTAAAAAAAAAGGAGGAACATAAAAAGTAGAA [XGTACX_negctrl_site272]”, the “gcPBM binding intensity (ln)” value is 8.52 ± 0.54.

Turning to “ATATAATTAAAATGCTCACACACATAAAAAAAAATT [CACACA_site2148]”, the “gcPBM binding intensity (ln)” value came out at 9.12 ± 0.42.

In the case of “TACATAATACATATAACACACACAATTATACATAAA [CACACA_site9060]”, the “gcPBM binding intensity (ln)” value amounted to 9.47 ± 0.21.

Consider “ATAATTACAAAATAAACACACATATAGATTTATATG [CACACA_site6343]”, for which the “gcPBM binding intensity (ln)” value is 8.83 ± 0.38.

Turning to “CACATATATATGTGTGCATGTTGTATTATATATTTA [TGCATGCA_site632]”, the “gcPBM binding intensity (ln)” value worked out at 9.93 ± 0.26.

On to “ATTTTATTTTTTAAAGGTACAGTTACAGCTTATATA [XGTACX_site7513]”, for which the “gcPBM binding intensity (ln)” value turned out to be 8.57 ± 0.46.

In the case of “GTACATATATACATTACACACGGTTTGATTTAAAAA [CACACA_site3379]”, the “gcPBM binding intensity (ln)” value stood at 8.98 ± 0.41.

Turning to “TAATATATTAACATGGGTACATATTATTTCATGTGT [XGTACX_site5985]”, the “gcPBM binding intensity (ln)” value was 9.02 ± 0.47.

On to “ATATTTAAATGTAATACATGCAAATTTGAACATTTT [TGCATGCA_site736]”, for which the “gcPBM binding intensity (ln)” value is 8.85 ± 0.46.

For the sequence “AAAAAAAAAAAAATCACACATATGTATTTATATATA [CACACA_site5790]”, the “gcPBM binding intensity (ln)” value came out at 8.62 ± 0.33.

“AAAAATTTAAGTGGGGGTACATTTTTTTAACACCTT [XGTACX_site1093]”: the “gcPBM binding intensity (ln)” value was 9.09 ± 0.26.

Take “AACAAACACGGACACACACACACACTAGAATGATTA [CACACA_site5364]”: the “gcPBM binding intensity (ln)” value was determined as 10.2 ± 0.31.

Take “TGTATAAGTATTAATACACACACAAAATAATAAAAA [CACACA_site9156]”: the “gcPBM binding intensity (ln)” value stood at 9.36 ± 0.4.

For the sequence “TACTTACATTATTTATTTATATAAAAAGTTAATTAT [XGTACX_negctrl_site433]”, the “gcPBM binding intensity (ln)” value stood at 8.32 ± 0.43.

Regarding “ATAATTAACAAATACACACACACACCCCCACAAAAA [CACACA_site518]”, the “gcPBM binding intensity (ln)” value was 10.5 ± 0.26.

“AGTATTCATAAAAATACACACATGGAAAAATAAACT [CACACA_site6796]”: the “gcPBM binding intensity (ln)” value turned out to be 9.23 ± 0.33.

For “TATATATTTTTTTTTTGTACTCACAATATATGTATG [XGTACX_site8024]”, the “gcPBM binding intensity (ln)” value worked out at 8.86 ± 0.52.

Regarding “AAATTAAAATATAATACACACATAAAAAAAAAAAAA [CACACA_site4183]”, the “gcPBM binding intensity (ln)” value was 8.95 ± 0.52.

As to “AATTTTTTATATGTCACACATTTATTATTATTATTA [CACACA_site4198]”, the “gcPBM binding intensity (ln)” value stood at 8.83 ± 0.48.

On to “TGTAATATAAAATTTTGTACTCAAAAATTTATATAT [XGTACX_site3252]”, for which the “gcPBM binding intensity (ln)” value amounted to 8.32 ± 0.36.

In the case of “ACTTATAAAAACATATACCCCATCGCATTTTTTCCA [XGTACX_negctrl_site177]”, the “gcPBM binding intensity (ln)” value was 8.87 ± 0.18.

As for “TTCCAAACCTCATTATGGAAAATAAAAAAATAAAAA [XGTACX_negctrl_site17]”, the “gcPBM binding intensity (ln)” value came to 8.31 ± 0.49.

Turning to “TTCCAAAAAGTTATTACACACATATGTGCACATATA [CACACA_site6465]”, the “gcPBM binding intensity (ln)” value stood at 9.09 ± 0.35.

Turning to “ATAAAATATTTTTGAACATGCAGGTAAAAAATAAAA [TGCATGCA_site1019]”, the “gcPBM binding intensity (ln)” value stood at 8.69 ± 0.5.

Regarding “AGAATATTATATTATGCATGCATATAGAAAAATATA [TGCATGCA_site302]”, the “gcPBM binding intensity (ln)” value amounted to 8.84 ± 0.31.

As to “TATATTTATAGGTACACACACACATATAAATAAATA [CACACA_site6345]”, the “gcPBM binding intensity (ln)” value was 9.64 ± 0.25.

As to “TTTATTAGTAATTATACACACATATAAAATGAATAA [CACACA_site6754]”, the “gcPBM binding intensity (ln)” value was found to be 8.6 ± 0.54.

As to “AAAAAAAAAAAAAACACACACATATATATATATATA [CACACA_site1891]”, the “gcPBM binding intensity (ln)” value was 10.1 ± 0.37.

“ATAAAATTATATTTTGCATGCAGGCCTTTTTCTTAA [TGCATGCA_site1030]”: the “gcPBM binding intensity (ln)” value stood at 9.07 ± 0.42.

Regarding “ATATATTTTTTGAATACACACATATTATAGGTAATA [CACACA_site6709]”, the “gcPBM binding intensity (ln)” value came to 8.82 ± 0.35.

In the case of “TAGTAGTTATCACTAACATGCAATAATATTATTTAA [TGCATGCA_site161]”, the “gcPBM binding intensity (ln)” value stood at 8.6 ± 0.42.

In the case of “CTATTTATTTTTGATGCATGCCAAATATAGAAAAAA [TGCATGCA_site368]”, the “gcPBM binding intensity (ln)” value was found to be 8.44 ± 0.38.

On to “CGTATAAATATACGTGCATGTAACTTTTTCTATATT [TGCATGCA_site981]”, for which the “gcPBM binding intensity (ln)” value turned out to be 8.84 ± 0.45.

“TGACTGTAGATATTTTGTACATAACCTAATATATAT [XGTACX_site970]”: the “gcPBM binding intensity (ln)” value was determined as 8.73 ± 0.4.

As to “ATAATATAATACGAAGGTACACATTTTCTTAATATA [XGTACX_site7947]”, the “gcPBM binding intensity (ln)” value was 8.77 ± 0.52.

For TACAGTTCAATGAAGGTGCAATTAATATATAAAATA, the “gcPBM binding intensity (ln)” value is 8.77 ± 0.46.

On to “TTTTTTTTTTTTTTTTGTACACATAATATGAATAAT [XGTACX_site2661]”, for which the “gcPBM binding intensity (ln)” value turned out to be 8.57 ± 0.32.

For the sequence “ATAACATATATATATACACACACATATATATATGAA [CACACA_site7983]”, the “gcPBM binding intensity (ln)” value was 9.28 ± 0.24.

For “TTATGTACAATTTCTTCTTTCTTTTTTCCTAAAGAC [CACACA_negctrl_site1193]”, the “gcPBM binding intensity (ln)” value was determined as 8.52 ± 0.49.

For “TTTTTTTTTCTTTTCAAACACACAATTGGTATATAT [CACACA_site3321]”, the “gcPBM binding intensity (ln)” value worked out at 8.88 ± 0.46.

Take “ATATTTTTATTAGTAGTGCAATTTAGTGTATATATA [GTGCAC_site9542]”: the “gcPBM binding intensity (ln)” value stood at 8.68 ± 0.41.

Turning to “TCATTTCACAGACACACACACACAATATATTTCCTT [CACACA_site9295]”, the “gcPBM binding intensity (ln)” value stood at 9.92 ± 0.42.

Regarding “AAAAAAAAAATTAAAACATGCATAAATAAATATATT [TGCATGCA_site866]”, the “gcPBM binding intensity (ln)” value was 8.74 ± 0.45.
